Laboratory results: PubChem BioAssay (NCATS)
The other results are listed elsewhere or left out. The main result of the screen is listed elsewhere. These columns were measured beside it and carry no call. Compounds called inactive in the main read-out are mostly missing here.

Assay: qHTS Assay for Lipid Storage Modulators (AID 1519)
Settings: Drosophila S3 cells, BODIPY lipid droplet/cell ratio, laser cytometry; measured here: lipid channel max response; cells loaded with oleic acid
Method in brief: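 Cells seeded at 5,000 per well were treated with compounds over a concentration series and loaded with oleic acid (400 uM, as added). Lipid droplet fluorescence (488 nm excitation, 500-530 nm channel) was read by laser-scanning cytometry and normalized to 20 uM Triacsin C.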

SMILES | max response
CN(C)Cc1ccccc1-c1ccc2ncnc(N(C)C)c2c1 | 42.2%
CCNc1ncc2nc(-c3ccccc3)c(=O)n(CCOC)c2n1 | 23.8%
O=C(Oc1ccccc1)N1CCC2(CC1)CCN(c1cccc(-c3ccccc3)c1)CC2 | -102%
OCC1NCC(O)C(O)C1O (stereo not given) | 40.4%
COc1cc2ccc(=O)oc2c(O)c1OCC=C(C)C | 73.8%
COc1ccc(Oc2ncc3nc(-c4cc(F)cc(F)c4)c(=O)n(C[C@H]4CCCO4)c3n2)cc1 | -2.05%
O=c1[nH]c2cc([N+](=O)[O-])c([N+](=O)[O-])cc2[nH]c1=O | 43%
C[C@@H](/C=C\c1cccc(Oc2ccc(F)cc2)c1)N(O)C(N)=O | 81.4%
Cc1cc(Cn2cnc3c2C[C@@H](C(=O)O)N(C(=O)C(c2ccccc2)c2ccccc2)C3)ccc1N(C)C | 94.9%
CC1c2cccc(O)c2C(O)=C2C(=O)[C@]3(O)C(O)=C(C(N)=O)C(=O)C(N(C)C)C3C(O)C21 (stereo not given in full) | 50.1%
COc1cccc(Cn2c(=O)c(-c3cccc(C#N)c3)nc3cnc(N4CCOCC4)nc32)c1 | 42%
CCCn1c(=O)c(C)cn2nc(N)nc12 | 126%
CCNc1ncc2nc(-c3ccccc3)c(=O)n(Cc3cccc(OC)c3)c2n1 | 27%
COc1cccc(-c2cncnc2NCCc2c[nH]c3ccc(OC)cc23)c1 | 41%
N#C[C@H](Cc1ccc(O)cc1)c1ccc(O)cc1 | 49.3%
COc1ccc(CNc2ccnc(-c3ccoc3)n2)c(OC)c1 | 26.1%
COc1ccc(-c2nc3cnc(OC)nc3n(C3CC3)c2=O)cc1 | 26.4%
O=C(c1cc(C(F)(F)F)cc(C(F)(F)F)c1)N1CCC2(CC1)CN(c1ncccn1)C2 | 39.4%
Cc1cccc(CNc2ncncc2-c2cccnc2)c1 | 20%
COc1ccc(-c2nc3cnc(N(C)C)nc3n(-c3ccccc3)c2=O)cc1 | -21.8%

SMILES | max response
COc1ccc2c(OC)c3ccoc3nc2c1OC | 165%
O=c1cc(-c2ccccc2O)oc2c(O)c(O)ccc12 | 111%
CNc1ncncc1-c1ccccc1CN(C)C | 43.8%
Cc1c(C2CCN(CCc3ccccc3)CC2)noc1-c1ccc(Cl)cc1 | 93.4%
COCCn1c(=O)c(C)nc2cnc(OCc3ccccc3)nc21 | 49%
COc1ccc(-c2cc(=O)c3ccccc3o2)cc1 | 45.1%
COc1ccc(Oc2ncc3nc(CCc4ccccc4)c(=O)n(CCC#N)c3n2)cc1 | 4.68%
COc1ncc2nc(CCc3ccccc3)c(=O)n(CCC#N)c2n1 | 42%
O=c1c(CCc2ccccc2)nc2cnc(N3CCOCC3)nc2n1C1CC1 | 31.5%
c1ccc(CNc2nc(-c3cccnc3)nc3ccccc23)cc1 | 31.6%
COc1ccc(C(=O)N2CCC[C@@]3(CCN(C(=O)Nc4cccc(F)c4)C3)C2)cc1 | 45.7%
CN(CCc1ccc(Cl)c(Cl)c1)C[C@@H](O)COc1ccc(NS(C)(=O)=O)cc1 | 77.7%
COc1ccccc1-c1cc(N(C)Cc2ccco2)ncn1 | 30.5%
FC(F)(F)c1ccccc1-c1cc(NCc2cccnc2)ncn1 | 44.9%
COc1ccc(C(=O)N2CCC3(CC2)CN(c2ccccc2)C3)cc1 | 40.4%
O=c1c(-c2cccs2)nc2cnc(N3CCNCC3)nc2n1CCc1ccccc1 | -4.85%
CN1CCN(c2ncc3nc(-c4ccccc4)c(=O)n(Cc4cccs4)c3n2)CC1 | 39.6%
COc1ccc2[nH]cc(CCNc3cc(-c4ccccc4Cl)ncn3)c2c1 | 34.1%
COc1ccc(-n2c(=O)c(-c3cccc(F)c3)nc3cncnc32)cc1 | 46.3%
COc1cccc(Cn2c(=O)c(-c3cc(F)cc(F)c3)nc3cnc(OC)nc32)c1 | 17%
